Measured values as given in PubChem BioAssay AID2147 (National Center for Advancing Translational Sciences (NCATS), 2009).
The whole screen tested about 230,000 compounds, of which about 3,600 (1.6%) were called active. The shares of active, inactive and inconclusive entries below differ from those in the screen. Calls follow the shape of the dose curve; as a rule, active = well fitted inhibition curve with a large enough effect (not every such curve was filed as active); inconclusive = small, poorly fitted or top-dose-only effect, or another doubt; inactive = no such curve, though single readings can be large or run the other way. Where the call is inconclusive, the potency comes from a doubtful curve fit.
Also: nearly all actives have a fitted effect of over 50% in size.
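For activity change, negative = inhibition in this document: 0% = wells with enzyme and -100% = buffer wells without enzyme.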
Potency is read from the fitted curve at half-maximal effect; tags tell the direction and shape of the fitted curve.

These compounds were tested against Lysine-specific demethylase 4E (Homo sapiens) (UniProt B2RXH2) (assay: qHTS Assay for Inhibitors of Human Jumonji Domain Containing 2E (JMJD2E)). Settings: JMJD2E catalytic domain, FDH-coupled NADH fluorescence (FDH is formaldehyde dehydrogenase); series mostly up to 57.1 µM; activity change, negative = inhibition: at the top concentration.
Sequence of UniProt B2RXH2 (B2RXH2 whole entry, looked up, the tested form may be a part): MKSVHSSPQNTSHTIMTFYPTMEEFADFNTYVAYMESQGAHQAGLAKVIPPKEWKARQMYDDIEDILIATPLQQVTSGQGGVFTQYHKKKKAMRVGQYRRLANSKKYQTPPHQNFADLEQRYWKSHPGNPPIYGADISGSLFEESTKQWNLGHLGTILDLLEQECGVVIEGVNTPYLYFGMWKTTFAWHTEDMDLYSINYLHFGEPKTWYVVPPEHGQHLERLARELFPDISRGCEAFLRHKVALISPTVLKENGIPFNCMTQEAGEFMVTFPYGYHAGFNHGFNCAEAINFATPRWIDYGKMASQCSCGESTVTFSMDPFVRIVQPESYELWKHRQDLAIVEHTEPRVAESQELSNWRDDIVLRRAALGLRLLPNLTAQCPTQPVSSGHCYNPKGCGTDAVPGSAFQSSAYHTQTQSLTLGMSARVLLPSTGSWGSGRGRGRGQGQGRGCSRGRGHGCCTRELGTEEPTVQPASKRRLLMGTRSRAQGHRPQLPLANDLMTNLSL
In the case of COc1ccccc1NS(=O)(=O)c1cccc(C(=O)NN=C2CCCCCC2)c1, the “activity change, negative = inhibition” value is reported as inactive: 30.4%.
With Cn1c(-c2nnn(-c3ccc(F)cc3)n2)cc2ccccc21 the Potency was inconclusive: 35.5 µM [inhibitor, single point].
For CCOc1cnc(-c2ccc(Cl)cc2)o1, the Potency was inconclusive: 31.6 µM [inhibitor, single point].
For O=C1c2ccc(O)c(O)c2C(=O)c2c(O)ccc(O)c21, the Potency was active: 3.55 µM.
For CCCCCc1cc(=O)oc2c(C(CCN3CCN(c4ccccc4)CC3)c3ccc(N(C)C)cc3)c(OC)cc(OC)c12 (stereo unspecified), the Potency was inconclusive: 20 µM [inhibitor, single point].
In the case of COC(=O)/C(=C/c1ccc2c(c1)c1ccccc1n2C)NC(=O)c1ccccc1, the Potency is reported as inconclusive: 31.6 µM [inhibitor, single point].
In the case of CCOc1ccc(/C=N/NC(=O)Cc2csc(Nc3cccc(C(F)(F)F)c3)n2)c(OCC)c1, the “activity change, negative = inhibition” value is reported as inactive: -3.65%.
In the case of COc1ccc(OC)c(-c2cc(C(=O)Nc3cc(C)n(Cc4ccc(Cl)cc4)n3)no2)c1, the Potency is reported as inconclusive: 31.6 µM [inhibitor, partial curve].
With CCCOC(=O)C1[C@H]2C(=O)N(Cc3ccco3)C[C@]23C=C[C@H]1O3 (stereo partly specified) the “activity change, negative = inhibition” value was inactive: 1.4%.
For CC(C(=O)Nc1ccc2nccnc2c1)N1C(=O)C2C3C=CC(C3)C2C1=O (stereo unspecified), the Potency was inconclusive: 28.2 µM [inhibitor, partial curve].
In the case of Cc1oc(-c2ccc3c(c2)OCCO3)cc1C(=O)NC(Cc1ccccc1)C(=O)O (stereo unspecified), the “activity change, negative = inhibition” value is reported as inactive: -26.7%.
In the case of CC(C)C(CCNC(=O)CC(Cc1ccccc1)c1ccco1)c1ccco1 (stereo unspecified), the Potency is reported as inconclusive: 39.8 µM [inhibitor, single point].
With CSc1nnc2c3cc(C)ccc3n(Cc3ccccc3)c2n1 the “activity change, negative = inhibition” value was inactive: -2.75%.
CCC(=O)Nc1ccc(S(=O)(=O)NCc2ccco2)cc1 was tested, and the “activity change, negative = inhibition” value was inactive: -11.7%.
O=C(O)CC1SC(=Nc2ccccc2)N(c2ccccc2)C1=O (stereo unspecified) was tested, and the “activity change, negative = inhibition” value was inactive: 1.76%.
Cc1nc(SCC(=O)NC(C)c2ccccc2)c2oc3ccccc3c2n1 (stereo unspecified) was tested, and the “activity change, negative = inhibition” value was inactive: 2.69%.
For O=C(NCc1ccc(F)cc1)c1cc2c(s1)CCCC2, the Potency was inconclusive: 35.5 µM [inhibitor, single point].
In the case of O=C(NCc1ccco1)c1cc(-c2cccs2)on1, the Potency is reported as inconclusive: 28.2 µM [inhibitor, single point].
COc1ccc(/C=C/C(=O)NC(=S)NNC(=O)Cc2cccs2)cc1OC was tested, and the Potency was inconclusive: 25.1 µM [inhibitor, single point].
In the case of Cc1nnc(SCC(=O)Nc2ccc(-c3nc4ccccc4s3)cc2)s1, the Potency is reported as inconclusive: 2.24 µM [inhibitor, partial curve].
In the case of CC(Sc1nnc2ccccn12)C(=O)Nc1ccc2c(c1)OCCO2 (stereo unspecified), the “activity change, negative = inhibition” value is reported as inactive: -15.4%.
